# Assay results published in the supplement of paper PMC10338343.
# ± gives the standard deviation. Only a part is listed here, and it is no random draw.
# System: MIWI (PIWIL1) piRISC loaded with piRNA #1 (30 nt)
# Experiment: pre-steady-state target cleavage rate (min^-1); MIWI and MILI are mouse PIWI proteins and EfPiwi is from a freshwater sponge; tags in brackets are library labels; higher = faster piRNA-guided slicing of the target
# Conditions: guide: piRNA #1 5'p-UGAGGUAGUAGGUUGUAUAGUAUCCAGAGG; auxiliary factor: 500 nM mouse GTSF1
# Method in brief: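 In HEPES–potassium acetate buffer at 33 °C, […] transcribed, DNA-blocked target RNA library was mixed with 1 nM active affinity-purified piRISC carrying one synthetic guide, with or without 500 nM GTSF1 partner protein, for 0–8 or 0–960 min. Uncleaved targets were sequenced and normalised to depth and to weakly complementary targets; three trials were pooled and k3 was capped at 0.0001 min^-1. The pre-steady-state cleavage rate followed from a burst-and-steady-state fit.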
# 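Note: 1 nM active piRISC with 0.1 nM target library at 33 °C single turnover.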
row,Sequence,pre-steady-state target cleavage rate
1,GCUCUGGAUACUAUACAACGUAGUACCUCA,0.474 ± 0.038
2,GGAGACCUUACUAUACAACGUACUUCCUCA,0.144 ± 0.026
3,GGAGACCUUACUUUACAACCUACUUCCUCA,0.0759 ± 0.013
4,GGAGACCUUACUAUACAACCUUCUACCACA,0.536 ± 0.045
5,GGUCUGGAAAGUAUACAACCUACUACCUCA,1.58 ± 0.11
6,GCUCUGGAUACUAUUCAACGUACUACCUCA,1.15 ± 0.079
7,GGAGACCUAUCUUUACAACCUAGUACCUCA,0.0293 ± 0.0069
8,GGACUGGAUACUAUACAACCUAAUACCUCA,0.483 ± 0.052
9,GGAGACGAUACUAUACAACCUACUACCUGCA,1.08 ± 0.081
10,GGAGACCUUACAAUUCAACCUACUACCUCA,0.0147 ± 0.0037
11,GCACUGGAUACUAUACAACCUACUUCCUCA,0.184 ± 0.045
12,GGAGACCUAACUAAAGAACCUACUACCUCA,0.00442 ± 0.0043
13,CCUCUGGAUACUAUACAACCUUGAUGGAGA [g10:g30:cont:t1A],0.00564 ± 0.0039
14,GGAGACCUAUGUAUACAUCCUACAACCUCA,0.00223 ± 0.0016
15,GGAGACGAUACUAUAGAACCUACUACCACA,0.258 ± 0.045
